Data taken from PubChem BioAssay AID2147 (National Center for Advancing Translational Sciences (NCATS), 2009).
Several values for one entry are separate records, joined by “and”; a condition that tells them apart may be missing. Identical values can stand only once. Screen size: about 230,000 compounds; about 3,600 (1.6%) were called active. The inconclusive results got no clear call from the source; some entries with a clear call stand among them for comparison. Calls come from the whole dose curve; as a rule, active = well fitted inhibition curve with a large enough effect (not every such curve was filed as active); inconclusive = small, poorly fitted or top-dose-only effect, or another doubt; inactive = no such curve, though single readings can be large or run the other way. Potencies of inconclusive entries are doubtful fits and often do not repeat.
Note: nearly all actives have a fitted effect of over 50% in size.
Potency is the fitted concentration of half-maximal effect; tags give direction and shape of the fitted curve.
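Throughout, for activity change, negative = inhibition: 0% = wells with enzyme and -100% = buffer wells without enzyme.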

Each molecule was assayed against Lysine-specific demethylase 4E (Homo sapiens) (UniProt B2RXH2) (assay: qHTS Assay for Inhibitors of Human Jumonji Domain Containing 2E (JMJD2E)). Conditions: JMJD2E catalytic domain, FDH-coupled NADH fluorescence (FDH is formaldehyde dehydrogenase); series mostly up to 57.1 µM; activity change, negative = inhibition: at the top concentration.
UniProt B2RXH2, sequence (B2RXH2 whole entry, looked up, the tested form may be a part): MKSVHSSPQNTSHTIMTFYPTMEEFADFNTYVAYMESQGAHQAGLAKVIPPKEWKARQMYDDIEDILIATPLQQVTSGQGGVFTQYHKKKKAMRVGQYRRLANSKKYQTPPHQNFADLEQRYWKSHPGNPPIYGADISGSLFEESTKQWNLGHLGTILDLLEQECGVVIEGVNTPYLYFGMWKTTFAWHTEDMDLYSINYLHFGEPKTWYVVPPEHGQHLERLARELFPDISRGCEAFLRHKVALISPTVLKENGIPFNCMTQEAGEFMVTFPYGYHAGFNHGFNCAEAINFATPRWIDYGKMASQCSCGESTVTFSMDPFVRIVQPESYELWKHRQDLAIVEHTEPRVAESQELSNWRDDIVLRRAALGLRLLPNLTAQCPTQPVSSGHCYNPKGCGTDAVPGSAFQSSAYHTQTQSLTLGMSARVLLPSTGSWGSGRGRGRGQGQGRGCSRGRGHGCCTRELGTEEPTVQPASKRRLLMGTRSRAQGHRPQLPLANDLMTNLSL
In the case of `COc1ccc(/C=C/C(=O)Nc2ccc(C34CC5CC(CC(O)(C5)C3)C4)cc2)cc1OC`, the Potency is reported as inconclusive: 35.5 µM [inhibitor, single point]. `O=C(NCCc1csc(-c2cccnc2)n1)c1ccco1` was tested, and the Potency was inconclusive: 39.8 µM [inhibitor, single point]. `Cc1ccc(NC2=C(Cl)C(=O)c3ccccc3C2=O)cc1` was tested, and the “activity change, negative = inhibition” value was inactive: 2.25%. With `COc1ccc(NC(=S)N(Cc2cccnc2)Cc2cc3cc(OC)c(OC)cc3[nH]c2=O)cc1` the Potency was inconclusive: 28.2 µM [inhibitor, partial curve]. In the case of `COc1ccc2c(c1)CC/C(=C\c1ccc(C)o1)C2=O`, the Potency is reported as inconclusive: 20 µM [inhibitor, partial curve]. With `O=C(NCc1nc2ccccc2[nH]1)C1=C[C@@H](c2ccc(Br)cc2)C[C@@H](OCc2ccc(CO)cc2)O1` the “activity change, negative = inhibition” value was inactive: -21.3%. For `CCN(CC)c1ccc(N=Cc2ccc(N(CC)CC)cc2O)cc1`, the Potency was inconclusive: 1.41 µM [inhibitor, full curve]. `Cc1cccc(C)c1NC(=S)N(CCN(C)C)C(C)c1ccccn1` (stereo not given) was tested, and the Potency was inconclusive: 7.94 µM [inhibitor, partial curve]. `N#Cc1c(Cl)cccc1N1CCCC1` was tested, and the Potency was inconclusive: 28.2 µM [inhibitor, single point]. `COCc1c(C(=O)N/N=C/c2cccc3ccccc23)nnn1-c1nonc1N` was tested, and the Potency was inconclusive: 25.1 µM [inhibitor, partial curve]. For `O=C(/C=C/c1ccc(OCCCF)cc1)NCc1ccc(Cl)cc1`, the “activity change, negative = inhibition” value was inactive: -4.59%. `O=C(/C=C\c1cn(-c2ccccc2)nc1-c1cccs1)N1CCOCC1` was tested, and the Potency was inconclusive: 22.4 µM [inhibitor, partial curve]. `O=C(NCC(=O)N(Cc1ccccc1)C(C(=O)NC1CCCC1)c1ccco1)c1ccco1` (stereo not given) was tested, and the “activity change, negative = inhibition” value was inactive: 0.0957%. For `CNc1nc2ccccc2n(C)c1=O`, the Potency was inconclusive: 28.2 µM [inhibitor, partial curve]. In the case of `Cc1cc(=O)n2c3ccccc3n(CC(O)CN3CCN(Cc4ccccc4)CC3)c2c1C#N` (stereo not given), the Potency is reported as inconclusive: 35.5 µM [inhibitor, single point]. With `COc1cc(/C=N/NC(=O)c2ccc(COc3cc(C)ccc3C(C)C)cc2)cc(OC)c1O` the “activity change, negative = inhibition” value was inactive: -4.31%. With `Cc1cccn2c(=O)c(C=Nc3ccccc3)c(NCc3ccco3)nc12` the “activity change, negative = inhibition” value was inactive: -0.445%. With `COc1cc(C(=O)Nc2cccc(-c3nnc(-c4ccco4)o3)c2)ccc1OC(C)=O` the Potency was inconclusive: 31.6 µM [inhibitor, single point]. For `COc1ccc(C2C(=O)N(C3CCCCC3)CC(=O)N2Cc2ccco2)cc1` (stereo not given), the “activity change, negative = inhibition” value was inactive: -0.609%. In the case of `COc1ccc(NC2=CC(c3ccc(F)cc3)N(c3ccc(OC)cc3)C2=O)cc1` (stereo not given), the Potency is reported as inconclusive: 14.1 µM [inhibitor, partial curve]. For `CC(=O)CCc1c(C)[nH]c2ccc(NC(C)=O)cc2c1=O`, the Potency was inconclusive: 25.1 µM [inhibitor, partial curve]. For `CSc1ccc(CN(C)CC(=O)NCc2ccccc2)cc1`, the “activity change, negative = inhibition” value was inactive: -2.99%. In the case of `Cc1cccn2cc(-c3ccc(S(=O)(=O)N4CCOCC4)cc3)nc12`, the Potency is reported as inconclusive: 31.6 µM [inhibitor, partial curve]. In the case of `Cc1cccc(-c2cc(C(=O)Nc3ccc4c(c3)OCCO4)c3ccccc3n2)c1`, the Potency is reported as inconclusive: 39.8 µM [inhibitor, single point]. In the case of `Fc1ccc(CN2CCCCCC2)c(F)c1`, the Potency is reported as inconclusive: 39.8 µM [inhibitor, single point]. For `CCOC(=O)Cc1cc(=O)n2[nH]c(C)c(-c3ccccc3OC)c2n1`, the Potency was inconclusive: 14.1 µM [inhibitor, partial curve]. For `O=C(CN1CCOCC1)NNc1c2ccccc2nc2ccccc12`, the Potency was inconclusive: 7.08 µM [inhibitor, single point]. With `Cc1cc2cc(CN(Cc3ccc4c(c3)OCO4)Cc3nnnn3C3CCCC3)c(=O)[nH]c2cc1C` the “activity change, negative = inhibition” value was inactive: -14.4%. In the case of `CC(=O)Nc1ccc(NC(=O)C2(C)CC2(Cl)Cl)cc1` (stereo not given), the “activity change, negative = inhibition” value is reported as inactive: 7.6%. For `Cc1nc(C)c(C(=O)N/N=C/c2cc(Br)ccc2O)s1`, the Potency was active: 22.4 µM. For `CCCCn1c(N)c(NCc2ccccc2OC)c(=O)[nH]c1=O`, the Potency was inconclusive: 31.6 µM [inhibitor, partial curve]. In the case of `Cc1nc(NCCO)c(C#N)c2c1COC(C)(C)C2`, the Potency is reported as inconclusive: 25.1 µM [inhibitor, partial curve]. With `CC1(C)CC(=O)C2=C(C1)OC(N)=C(C#N)[C@@H]2c1ccccc1[N+](=O)[O-]` the Potency was inconclusive: 31.6 µM [inhibitor, single point]. `Cc1noc(NS(=O)(=O)c2ccc(N/C=C\C(=O)c3ccc4c(c3)OCO4)cc2)c1C` was tested, and the “activity change, negative = inhibition” value was inactive: -14.9%. In the case of `N#Cc1nc(-c2cccs2)oc1NCCN1CCOCC1`, the Potency is reported as inconclusive: 28.2 µM [inhibitor, partial curve]. In the case of `CCOC(=O)c1sc(Nc2nc3cc4c(cc3s2)OCO4)cc1C`, the Potency is reported as inconclusive: 6.31 µM [inhibitor, single point]. With `CC(=O)N1CC=C2C(C#N)=C(N)C(C#N)(C#N)[C@H](c3ccoc3)[C@H]2C1` the Potency was inconclusive: 25.1 µM [inhibitor, partial curve]. With `C#CCOCCOCCOCCNc1nc(N2CCN(C(=O)[C@H](C(C)C)n3cc(CCO)nn3)CC2)nc(N2CCN(C(=O)[C@H]([C@@H](C)CC)n3cc(CCCCN)nn3)CC2)n1` the “activity change, negative = inhibition” value was inactive: -10.1%. With `Cc1cc(S(=O)(=O)NC2CCCCC2)ccc1-n1cnnn1` the Potency was inconclusive: 2.82 µM [inhibitor, full curve, poor fit]. For `COCCCn1c2nc3ccccc3nc2c2c(=O)n(-c3ccccc3OC)c(C)nc21`, the Potency was inconclusive: 14.1 µM [inhibitor, single point]. `O=C(CCCN1C(=O)/C(=C/c2cccs2)SC1=S)Nc1cccc(C(=O)O)c1` was tested, and the Potency was inconclusive: 3.98 µM [inhibitor, single point]. For `O=c1cc(-c2ccc3c(c2)OCCO3)oc2ccc(Cl)cc12`, the Potency was inconclusive: 2.24 µM [inhibitor, partial curve]. `O=C(CCOc1ccccc1)N1CCN(c2ccc(O)cc2)CC1` was tested, and the Potency was inconclusive: 39.8 µM [inhibitor, single point]. In the case of `Cc1cccc(-n2ncc3c(NCc4ccco4)ncnc32)c1`, the Potency is reported as inconclusive: 31.6 µM [inhibitor, single point]. In the case of `Cc1cccc2cc(CN(CC3CCCO3)C(=O)c3ccco3)c(=O)[nH]c12` (stereo not given), the Potency is reported as inconclusive: 39.8 µM [inhibitor, single point]. For `O=[N+]([O-])c1cc(/C=N/Nc2nc(N3CCCCC3)nc(N3CCCCC3)n2)ccc1O`, the “activity change, negative = inhibition” value was inactive: 4.63%. `CC1=CC(=O)C(C(C)C)=C/C1=N/OS(=O)(=O)c1ccccc1` was tested, and the “activity change, negative = inhibition” value was inactive: 0.875%. In the case of `CCNC(=S)N(Cc1cc2cccc(C)c2[nH]c1=O)C1CCCC1`, the “activity change, negative = inhibition” value is reported as inactive: -2.35%. In the case of `CCOC(=O)/C=c1\sc2n(c1=O)CCN=2`, the Potency is reported as inconclusive: 31.6 µM [inhibitor, partial curve]. For `CC(C)(C)NCCOCCOc1ccccc1-c1ccccc1`, the “activity change, negative = inhibition” value was inactive: 1.73%. In the case of `Cc1ccc2nc(-c3ccc(S(=O)(=O)N4CCOCC4)cc3)cn2c1`, the Potency is reported as inconclusive: 10 µM [inhibitor, partial curve]. For `CCOC(=O)Nc1cc(Br)c2c(c1)OCCO2`, the “activity change, negative = inhibition” value was inactive: -2.24%. For `COc1ccc(NC(=O)CN2c3cccc4cccc(c34)S2(=O)=O)cc1`, the Potency was inconclusive: 31.6 µM [inhibitor, partial curve]. For `Cc1oc2c(c1C(=O)N1CCOCC1)C(=O)c1ccccc1C2=O`, the Potency was inconclusive: 17.8 µM [inhibitor, single point]. For `N#Cc1c(-c2ccccc2Cl)noc1/C=C/Nc1ccc(C(=O)O)cc1`, the Potency was inconclusive: 22.4 µM [inhibitor, partial curve]. `COC(=O)C1=C(C)NC2=C(C(=O)CCC2)C1c1ccsc1` (stereo not given) was tested, and the Potency was inconclusive: 35.5 µM [inhibitor, single point]. For `CC(C)CCN(C(=O)Cc1ccc(Cl)c(Cl)c1)c1c(N)n(Cc2ccccc2)c(=O)[nH]c1=O`, the “activity change, negative = inhibition” value was inactive: 14.5%. For `COCCCNC(=O)c1cn(CC(C)C)c(=O)c2c1c1ccccc1n2C`, the Potency was inconclusive: 25.1 µM [inhibitor, partial curve]. In the case of `CC1(C)C2(Cl)C(Cl)C(Cl)C(Cl)(C(Cl)Cl)C1(Cl)C2Cl` (stereo not given), the “activity change, negative = inhibition” value is reported as inactive: 7.78%. `Cc1ccc(CNC(=O)c2nnn(-c3cccc(C)c3)c2N)cc1` was tested, and the Potency was inconclusive: 39.8 µM [inhibitor, single point]. `O=C(C1=C(O)C(=O)N(CCc2ccccc2)C1c1cccs1)c1ccco1` (stereo not given) was tested, and the “activity change, negative = inhibition” value was inactive: -8.98%. For `CC(=O)N1CCN(c2ccc(Nc3ncnc4c3oc3ccccc34)cc2)CC1`, the Potency was inconclusive: 31.6 µM [inhibitor, single point]. For `COc1cc(NC(=O)c2c3c(nc4ccccc24)CCC3)cc(OC)c1`, the “activity change, negative = inhibition” value was inactive: -2.71%. In the case of `CC1(C)Cc2nc3sc4c(OCc5ccccc5)ncnc4c3cc2CO1`, the “activity change, negative = inhibition” value is reported as inactive: -5.63%. With `COc1ccc(N(C(=O)Cn2nnc3ccccc32)C(C(=O)NC(C)(C)C)c2ccc(OC)c(O)c2)cc1` (stereo not given) the “activity change, negative = inhibition” value was inactive: 20.7%. For `Cc1nc2ccccn2c(=O)c1CCN1CCC(C(=O)c2ccc(F)cc2)CC1`, the Potency was inconclusive: 35.5 µM [inhibitor, single point] and inconclusive: 25.1 µM [inhibitor, single point]. For `O=C(Nc1ccc(-c2nc3cccnc3s2)cc1)c1ccc(Cl)nc1`, the Potency was inconclusive: 11.2 µM [inhibitor, single point]. With `CCOc1ccc2ccccc2c1CNc1nnnn1CC` the “activity change, negative = inhibition” value was inactive: -6.88%. With `COc1ccc(C(=O)Nc2sc(C)c(-c3ccccc3)c2C#N)cc1OC` the Potency was inconclusive: 35.5 µM [inhibitor, single point]. `Cc1ccc(C(=O)Nc2nc(C(C)(C)C)cs2)s1` was tested, and the Potency was inconclusive: 39.8 µM [inhibitor, single point].
